# From publication PMC4336329 (PLoS ONE, 2015)
# In all, about 310,000 compounds went through this assay and about 14,000 (4.5%) showed an effect of 50% or more. Effects have a minus sign here. Some of the results follow.
# Target: human ether-à-go-go-related gene (hERG) potassium channel (human, UniProt Q12809)
# Assay: primary screen, population patch clamp on CHO cells stably expressing hERG
# Protocol: Briefly, Chinese hamster ovary (CHO) cells stably expressing the hERG channel were dislodged from tissue culture flasks and dispensed into PPC plates. […] During the recording, background leak currents were estimated by a 100 ms step to -80 mV from an initial holding potential of -70 mV and subtracted from the subsequent current measurement. The campaign was conducted in two phases using slight differences in recording protocol. In the first phase, the initial voltage pulse used a 100 ms step to -30 mV from a holding potential of -70 mV, a 2 s conditioning step to +25 mV, and a 2 s test step to -30 mV. During the second phase of the screen, the potential during the conditioning step was raised to +45 mV. In both phases of the campaign, a secondary voltage pulse was applied using the same parameters as the second phase initial pulse. The initial and secondary pulses were applied in the absence of compound, and upon application of 1 μM and 10 μM test concentrations. […]
# 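Note: peak tail current of the secondary pulse compared with the same well before compound.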
# human ether-à-go-go-related gene (hERG) potassium channel, sequence (Q12809 whole entry, looked up): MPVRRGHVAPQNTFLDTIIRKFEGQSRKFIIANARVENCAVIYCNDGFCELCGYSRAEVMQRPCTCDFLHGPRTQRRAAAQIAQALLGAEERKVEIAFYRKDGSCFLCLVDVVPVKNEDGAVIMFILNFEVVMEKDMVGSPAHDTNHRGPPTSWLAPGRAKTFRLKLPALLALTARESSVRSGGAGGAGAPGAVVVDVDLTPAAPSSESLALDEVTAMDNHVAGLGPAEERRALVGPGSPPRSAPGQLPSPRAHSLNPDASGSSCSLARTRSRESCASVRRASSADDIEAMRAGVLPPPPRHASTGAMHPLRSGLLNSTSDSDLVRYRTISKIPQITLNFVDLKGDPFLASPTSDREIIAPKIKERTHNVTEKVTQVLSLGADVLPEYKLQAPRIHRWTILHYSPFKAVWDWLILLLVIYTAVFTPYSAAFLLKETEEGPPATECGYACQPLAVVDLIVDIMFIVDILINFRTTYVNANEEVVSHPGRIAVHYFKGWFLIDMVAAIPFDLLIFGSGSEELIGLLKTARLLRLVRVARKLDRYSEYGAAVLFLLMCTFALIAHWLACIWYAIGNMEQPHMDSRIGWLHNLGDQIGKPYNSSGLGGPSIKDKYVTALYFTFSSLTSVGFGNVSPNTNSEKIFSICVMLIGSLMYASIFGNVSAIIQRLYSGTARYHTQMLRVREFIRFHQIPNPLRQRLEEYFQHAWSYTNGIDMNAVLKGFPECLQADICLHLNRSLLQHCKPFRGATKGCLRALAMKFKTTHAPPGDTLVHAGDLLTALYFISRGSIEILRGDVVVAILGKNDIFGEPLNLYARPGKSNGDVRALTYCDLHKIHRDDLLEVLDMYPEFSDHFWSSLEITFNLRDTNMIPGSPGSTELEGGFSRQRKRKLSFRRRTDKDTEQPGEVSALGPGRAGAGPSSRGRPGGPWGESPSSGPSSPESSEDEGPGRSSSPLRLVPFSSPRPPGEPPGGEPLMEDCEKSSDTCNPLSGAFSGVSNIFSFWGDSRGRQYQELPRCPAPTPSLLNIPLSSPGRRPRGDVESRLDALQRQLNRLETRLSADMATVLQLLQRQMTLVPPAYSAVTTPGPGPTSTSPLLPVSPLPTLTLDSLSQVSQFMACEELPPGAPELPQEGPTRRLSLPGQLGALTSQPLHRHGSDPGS
row,Compound,"hERG current change (%, negative = inhibition) at 10uM"
1,O=C(Nc1cccnc1)c1ccccc1NS(=O)(=O)c1ccc(F)cc1,-11.5%
2,Cc1cc(C)n(-c2cc(N3CCOCC3)nc(-c3ccccc3)n2)n1,5.72%
3,O=C(NCCCN=C1NS(=O)(=O)c2ccccc21)c1ccc(S(=O)(=O)N2CCCCC2)cc1,-4.67%
4,O=C(Nc1ccccc1F)Oc1cccc(OC(=O)Nc2ccccc2F)c1,17.5%
5,Cc1ccc(C)c(-n2cc(CN3CCN(C(=O)c4ncn[nH]4)CC3)c(-c3ccccc3)n2)c1,-30.7%
6,Cc1n[nH]c(C)c1CCCCOc1ccccc1[N+](=O)[O-].O=C(O)C(=O)O,11.9%
7,CCCCn1c(NC(=O)C2CCCCC2)nc2ccccc21,4.63%
8,Cc1ccc(C(=O)OCc2cn3ccccc3n2)cc1,-12.7%
9,Cc1ccoc1C(=O)Nc1cccc2ccccc12,10.5%
10,CN(C)C(=O)COC(=O)c1cccnc1Nc1ccccc1F,13.5%
11,COc1ccccc1N(CC(=O)N1CCC(C(N)=O)CC1)S(=O)(=O)c1ccccc1,12.1%
12,CCCCNc1cc(=O)n(C)c(=O)[nH]1,7.25%
13,Cc1ccc(N2CC(=O)N(CC(=O)O)C2=O)cc1,25.2%
14,CC(C)N=C1SC(CC(=O)Nc2ccccc2)C(=O)N1C(C)C (centres unmarked),-37.6%
15,CCOc1ccccc1NC(=O)CCS(=O)(=O)c1ccc(OC)cc1,-0.411%
16,COc1ccc(C(=O)NCc2nnc(SCC(=O)Nc3cccc(C(F)(F)F)c3)o2)cc1OC,9.11%
17,COc1ccccc1NC(=O)COC(=O)c1ccccc1C(=O)N1CCN(c2ccccc2)CC1,-42.3%
18,O=C1NC(c2ccccc2)=CC(c2ccccc2O)N1 (centres unmarked),5.3%
19,Cc1cc(C)n2nc(SCc3ccccc3C(=O)O)nc2n1,19.7%
20,CCOC(=O)c1ccc(CNS(=O)(=O)c2c(C)ccc3nsnc23)o1,-6.38%
21,CC(C)CN(C(=O)c1cccc([N+](=O)[O-])c1)c1c(N)n(CC(C)C)c(=O)[nH]c1=O,14.7%
22,C=CCn1c(SCC(=O)NCC2CCCO2)nc2sc(C)c(C)c2c1=O (centres unmarked),-22.2%
23,COc1ccc(OC)c(C(=O)CSc2nc3ncccc3[nH]2)c1,-3.98%

row,Compound,"hERG current change (%, negative = inhibition) at 10uM"
1,C/C(=N\Nc1nnc2c3ccccc3n(C)c2n1)c1ccc(C)o1,-52.4%
2,Cc1nnc(SCC(=O)c2ccc(C(C)C)cc2)s1,-0.941%
3,COc1cc(C(=O)Nc2c(C(=O)O)[nH]c3ccc(C)cc23)cc(OC)c1OC,20.5%
4,Cc1cccc(N2C(=O)CS/C2=N\NC(=O)c2cccnc2)c1C,7.11%
5,O=C1C=C(NCc2ccc(Cl)cc2)CCC1,-25.2%
6,C[C@H]1CC[C@@]2(O[C@@H](CCO)C[C@@H](O)[C@@H]2O)O1,18.6%
7,Cc1ccc(C)c(C(=O)COC(=O)C(C)N2C(=O)C3C4CCC(C4)C3C2=O)c1 (centres unmarked),12%
8,O=C(COc1ncnc2c(Cl)cc(Cl)cc12)Nc1cc([N+](=O)[O-])ccc1Cl,19.7%
9,CC1(C)CC2(CC(C)(C)N1)OC(=O)N1CCc3ccccc3C12C (centres unmarked),8.28%
10,CCCCCN(C(=O)CCC(=O)OCC(=O)N1CCCC(C)C1)c1c(N)n(CCCC)c(=O)[nH]c1=O (centres unmarked),10.8%
11,CCCCNC(=O)COC(=O)c1ccc(C)c(NC(=O)c2ccco2)c1,-7.9%
12,O=C(CCc1nnc(CCC2CCCCC2)o1)NCCn1cccn1,17.2%
13,OCC(CO)(CO)NC(=S)Nc1cc(Cl)cc(Cl)c1,9.16%
14,COc1cc(/C=N/S(=O)(=O)CCc2ccccc2)cc(OC)c1O,-3.95%
15,COc1ccc(Cl)cc1NC(=O)CN1CCN(S(=O)(=O)c2ccc(F)cc2)CC1,-43.8%
16,Cc1cc2c(cc1C)C(c1cccc(F)c1)CC(=O)N2 (centres unmarked),12%
17,CCOC(=O)C1(CCOc2ccccc2)CCN(Cc2cc(OC)c3c(c2)OCO3)CC1,-72.1%
18,CNC(=O)c1ccsc1NC(=O)CN1C(=O)CCC1=O,6.39%
19,O=C(COc1cc2oc(=O)c3c(c2cc1Cl)CCC3)NCCCN1CCOCC1,7.01%
20,O=C(COc1cccnc1[N+](=O)[O-])NCc1ccc2c(c1)OCO2,-26.2%
21,CCCCC(=O)Nc1ccc(NC(=O)c2ccco2)cn1,10.1%
22,Cc1nn2c(C)nc3sc4c(c3c2nc1=O)CC(C)(C)OC4,11.9%
23,Cc1cccc(/C=N/NC(=O)c2ccc3c(c2)OCCO3)c1O,-0.0887%

row,Compound,"hERG current change (%, negative = inhibition) at 10uM"
1,Cc1ccccc1C(=O)Nc1c2c(nn1C(C)(C)C)CS(=O)(=O)C2,2.99%
2,CCN(CC)/C(Sc1ccccc1)=C(\C(Cl)=C(Cl)Cl)[N+](=O)[O-],-5.29%
3,CCOc1cccc(/C(O)=C2/C(=O)C(=O)N(CCOC)C2c2ccco2)c1 (centres unmarked),4.21%
4,O=C(CSc1nc2ccccc2[nH]1)N1CCCCC1,-2%
5,O=C(COn1nnc2ccc(Cl)cc21)Nc1ccc(F)cc1,14.5%
6,CC(OC(=O)c1oc2ccccc2c1CSC1CCCCC1)C(=O)NC(N)=O (centres unmarked),7.78%
7,COc1ccc(NC(=O)CSc2nc3ccccc3nc2N2CCOCC2)c(OC)c1,-5.88%
8,CCOc1ccccc1OCC(=O)NC1CCCCC1,-13.7%
9,CSc1ncc2ncn(C3OC(CO)C(O)C3O)c2n1 (centres unmarked),10.3%
10,CCOC(=O)C1=C(C)NC(=NC)SC1c1ccccc1 (centres unmarked),11.3%
11,CC1=C(C#N)C(=O)N(C2CCS(=O)(=O)C2)C(=O)/C1=C\c1ccc(C)o1 (centres unmarked),6.38%
12,C[n+]1ccccc1/C=N/O.[Cl-],17.3%
13,O=C1CC(c2ccccc2)n2nc(NC(=O)C3CCCO3)nc2N1 (centres unmarked),-10%
14,CCCCCC(=O)c1ccc(O)cc1O,3.48%
15,O=C(Nc1ccc(Cl)c([N+](=O)[O-])c1)c1ccc(NCCCN2CCOCC2)c([N+](=O)[O-])c1,-10.2%
16,COc1ccc(/C=C/C(=O)NCc2ccc(F)cc2)cc1S(=O)(=O)N1CCOCC1,-24%
17,CCN(Cc1cc2ccccc2[nH]c1=O)C(=O)C1CCCCC1,-13.3%
18,O=C(NCC1CC1)C1(C(F)(F)F)CC(CCCO)CCCO1 (centres unmarked),20.5%
19,O=C(OCc1cccc(C(F)(F)F)c1)c1cc(S(=O)(=O)N2CCOCC2)ccc1F,-8.25%
20,COc1ccc(N(CC(=O)Nc2ccc(OC)cc2OC)S(=O)(=O)c2ccccc2)cc1,-1.33%
21,Cc1nn(-c2ccccc2)c(N)c1N=Nc1ccc2ccccc2c1,6.88%
22,CCOc1cc2c(cc1/C=C(/C#N)c1ccc(C(=O)O)cc1)OCO2,9.73%
23,Cc1c(C)n(C)c2ccc(C(=O)NCCCN(C)C3CCCCC3)cc12,-44.6%

row,Compound,"hERG current change (%, negative = inhibition) at 10uM"
1,CC(C)C(=O)Nc1cccc(-c2nc3ccccc3o2)c1,2.06%
2,COc1cccc(-c2ccc3nnc(SCC(=O)N4CCCC4)n3n2)c1,-17.1%
3,CSc1ccc(Cl)c(C(=O)NCCOc2cc(C(C)C)ccc2C)c1,19.4%
4,CC(=O)Nc1ccc(S(=O)(=O)NCC2CCC(C(=O)NC(C)c3ccc4c(c3)OCCO4)CC2)cc1 (centres unmarked),20%
5,O=C(OCn1nnc2ccccc2c1=O)c1cccnc1,1.64%
6,CN(C(=O)COC(=O)c1cc(=O)[nH]c2ccccc12)C1CCCCC1,-4.95%
7,CCOc1c2ccc(C(=O)NC3CCCc4ccccc43)cc2nn1C (centres unmarked),-14.1%
8,COc1cc(/C=N/Nc2nncn2/N=C/c2ccc(O)c(OC)c2)ccc1O,-39.7%
9,COc1ccc(N2CCN(C(=O)c3ccc(-n4nc(C)cc4C)cc3)CC2)cc1,-19.4%
10,CCOC(=O)n1c(SCC(=O)N(CC)CC)nc2ccccc21,-15.8%
11,COc1cc2c(cc1OC)-c1nnc(C)n1C(C)(C)C2,12.1%
12,O=C(NCc1ccccn1)Nc1cccc(NC(=O)NCc2ccccn2)c1,-26.9%
13,O=C(Nc1c(C(=O)N2CCOCC2)cnn1-c1ccccc1)c1ccccc1,-1.05%
14,C[n+]1cccc2c(Br)ccc([O-])c21.O,19.5%
15,CC(C)Cn1c(N)c(C(=O)COC(=O)c2ccc(O)cc2O)c(=O)n(C)c1=O,8.34%
16,CC(=NCCCn1ccnc1)C1=C(O)c2ccccc2C1=O,-68%
17,CCc1ccc(NC(=O)CSc2nc3cc(C(=O)OC)ccc3c(=O)n2CC2CCCO2)cc1 (centres unmarked),-3.72%
18,CCCCN(C(=O)c1oc2ccc(OCC)cc2c1C)c1c(N)n(CCCC)c(=O)[nH]c1=O,-2.38%
19,Cc1c(O)nc(SCC(=O)Nc2nccs2)n(-c2ccccc2F)c1=O,7.42%
20,N/C(=N\NC(=O)c1cccs1)c1cc2cc(Cl)ccc2oc1=O,12.3%
